# According to publication PMC6919601, “Identification of Plasmodium dipeptidyl aminopeptidase allosteric inhibitors by high throughput screening” (PLoS ONE, 2019):
# The whole screen tested about 110,000 compounds, of which about 230 (0.21%) showed an effect of 50% or more. The list shows a part of the results.
# Target: DPAP1 (Plasmodium falciparum, UniProt Q8IIJ9)
# Test: primary screen, percent inhibition; read by cleavage of a fluorogenic dipeptide substrate; higher = more effect of the substance
# Parameters: species or system P. falciparum D10 trophozoite lysates; single well
# 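Note: 30 min substrate incubation versus DMSO and 10 µM JCP410 controls.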
# Chain of DPAP1 (Q8IIJ9 whole entry, looked up): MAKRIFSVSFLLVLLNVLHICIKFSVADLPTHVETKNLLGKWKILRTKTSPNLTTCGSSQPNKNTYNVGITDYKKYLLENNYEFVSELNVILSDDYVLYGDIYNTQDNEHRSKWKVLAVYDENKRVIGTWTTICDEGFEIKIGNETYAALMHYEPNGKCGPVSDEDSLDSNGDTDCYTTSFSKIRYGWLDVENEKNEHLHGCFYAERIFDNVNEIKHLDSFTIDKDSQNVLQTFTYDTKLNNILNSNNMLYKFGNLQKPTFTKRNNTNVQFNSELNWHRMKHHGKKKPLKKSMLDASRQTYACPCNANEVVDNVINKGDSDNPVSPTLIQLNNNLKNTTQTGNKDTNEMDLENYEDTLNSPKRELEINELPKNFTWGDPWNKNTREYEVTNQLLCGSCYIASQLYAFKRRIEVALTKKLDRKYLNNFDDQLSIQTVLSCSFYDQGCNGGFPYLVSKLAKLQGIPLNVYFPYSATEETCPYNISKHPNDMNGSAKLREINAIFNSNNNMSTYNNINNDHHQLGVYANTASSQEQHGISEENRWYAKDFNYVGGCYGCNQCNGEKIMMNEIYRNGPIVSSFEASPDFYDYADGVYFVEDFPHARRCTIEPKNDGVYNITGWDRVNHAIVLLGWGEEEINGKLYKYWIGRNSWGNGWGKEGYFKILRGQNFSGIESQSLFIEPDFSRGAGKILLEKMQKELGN
row,SMILES,% Inhibition @ 10 uM [%]
1,CC(C)c1ccc(/C=C2\C(=N)N3N=C(S(C)(=O)=O)SC3=NC2=O)cc1,1.85
2,Cc1sc(NC(=O)c2cccc(Br)c2)c(C(=O)O)c1C,-5.29
3,Cc1ccc(C)c(Cn2c(=O)cc(-c3ccccc3)c3c(C)nn(C)c32)c1,-1.15
4,O=S(=O)(Nc1ccc(Br)cc1)c1ccc(Cl)cc1,-0.999
5,CC1=C(C#N)C(c2ccc(C)cc2)C2=C(O)c3ccccc3C2=N1 (stereo not drawn),-3.85
6,CC(C)(C)c1ccc(C(=O)N[C@@H](Cc2c(F)cccc2F)C(=O)NCC#N)cc1,-5.2
7,COc1ccc(CCn2c(=O)c(C#N)cc3c(=O)n4cccc(C)c4nc32)cc1OC,-9.82
8,Cc1ccc(CNC(=O)CCNS(=O)(=O)c2cccs2)cc1,-4.65
9,C=CCNC(=O)c1ccccc1C(=O)Nc1cccc2ccccc12,-6.52
10,O=C(NCc1ccccn1)c1ccc2ccccc2n1,-4.91
11,COc1ccccc1CNC(=O)c1ccc2c(Cl)c3c(nc2c1)CCCC3,4.91
12,Cc1cc(NC(=O)CSc2nc3nccnc3c(=O)n2CCc2ccccc2)[nH]n1,2.25
13,COc1cc(OC)cc(C(=O)Nc2ccc(C)cc2)c1,2.48
14,COc1ccc(Br)cc1/C=C1\C(=O)ON=C1c1ccccc1,-2.37
15,CCC(C(=O)NCc1ccc(C)cc1)n1ncn2c(cc3cc(C)ccc32)c1=O (stereo not drawn),-0.281
16,O=C(O)C1c2ccccc2C(=O)N(C2CC2)C1c1ccccc1O (stereo not drawn),-2.65
17,Cc1cccc(OCc2nn3c(-c4ccncc4)nnc3s2)c1,7.5
18,N=C(NOC(=O)/C=C/c1ccccc1Cl)c1ccncc1,-1.86
19,COc1cc(OC)cc(C(=O)Nc2cccnc2Cl)c1,-2.32
20,CCOc1ccc(-c2nc(C)sc2CC(=O)O)cc1,-3.53
21,COc1cc(NC(=O)COc2cccc(Cl)c2)cc(OC)c1OC,1.65

row,SMILES,% Inhibition @ 10 uM [%]
1,COc1ccc(NS(=O)(=O)CC(C)C)c(OC)c1,-2.35
2,COc1ccc(-c2nnc3sc(-c4ccccc4)cc(=O)n23)cc1,6.17
3,CC1(C)CC(=O)C2=C(C1)OC1=C(C(=O)CC(C)(C)C1)C2c1cccc(O)c1,0.98
4,CCCCN(Cc1cc2cc(OC)ccc2nc1O)S(C)(=O)=O,-0.671
5,c1cc(-c2nc3c4c5c(sc4ncn3n2)CCCC5)ccn1,0.512
6,COC(=O)c1c(C)nc2n(C)c3ccccc3n12,5.16
7,O=C(O)c1c(CNCCc2ccccc2Cl)c2ccccc2n1Cc1ccc(F)cc1,-5.93
8,COc1ccc(N2CCN(C(C)Cc3cccc(C(F)(F)F)c3)CC2)cc1 (stereo not drawn),-5.31
9,CCCOc1ccc(C2C(C(=O)OC)=CN(C)C=C2C(=O)OC)cc1OC,3.45
10,CC1(C)CC(=O)C2=C(C1)OC1=C(C(=O)CC(C)(C)C1)C2c1ccccc1,-2.15
11,COc1cc(-c2nnc3sc(C4COc5ccccc5O4)nn23)cc(OC)c1OC (stereo not drawn),1.25
12,N#CCNC(=O)[C@H](CCCNC(=N)N)NC(=O)c1ccc(-c2csc(Nc3ccncc3)n2)cc1,1.7
13,CCCNC(=O)CN(c1ccccc1F)S(=O)(=O)c1ccc(C)cc1,1.69
14,COc1ccccc1C(=O)n1nc(-c2ccco2)nc1NCc1ccccc1Cl,-5.08
15,COc1cc(CN2CCN(c3cccc(Cl)c3)CC2)ccc1O,-1.77
16,CCOC(=O)N1CCN(c2c(N(C)Cc3ccccc3)c(=O)c2=O)CC1,5.09
17,Cc1nc(CC(O)C(Cl)(Cl)Cl)c2cc(C)oc2n1 (stereo not drawn),0.64
18,Cc1ncc(C)[n+]2c(Nc3ccccc3)nn(C)c12,-2.32
19,CCCOc1ccc(-c2nc3ccccc3c(C(=O)O)c2C)cc1,0.64
20,CC(C)Oc1ccccc1NC(=O)CSc1nc2ccccc2c(=O)n1C,2.22
21,CCCCNC(=O)CN(c1cc(C(F)(F)F)ccc1Cl)S(C)(=O)=O,2.22

row,SMILES,% Inhibition @ 10 uM [%]
1,COC(=O)c1sc(N2C(=O)c3oc4ccc(C)cc4c(=O)c3C2c2ccc(C)cc2)nc1C (stereo not drawn),-5
2,CCc1ccc(OCC(=O)Nc2sc3c(c2C(N)=O)CCC3)cc1,10.9
3,Cc1noc2ncnc(NCCN(C)Cc3ccccc3)c12,-6.93
4,CCCCNC(=S)N1CCn2cccc2C1c1cccnc1 (stereo not drawn),-2.38
5,CCN(CC)S(=O)(=O)c1ccc(C(=O)Nc2ncn(Cc3ccccc3)n2)cc1,5.94
6,COc1c(C)cccc1C1=N/C(=C\c2ccc(Cl)cc2)C(=O)O1,10.7
7,Cc1cc2c(c(=O)o1)C(c1cc(Br)cs1)C(C#N)=C(N)O2 (stereo not drawn),1.08
8,C=CCn1c2ccccc2n2cc(-c3ccc4c(c3)OCO4)nc12,3.74
9,COc1ccc(-c2nnc3c4ccccc4c(C)nn23)cc1S(=O)(=O)N1CCN(C)CC1,3.25
10,O=C(Nc1ccccc1)N1CCC(S)=Nc2ccccc21,5.49
11,CCCC1=C(C(=O)OCC)C(c2cccc(OC)c2OC)NC(=O)N1 (stereo not drawn),0.0538
12,CC1CCN(c2ccc3nnc(CCC(=O)NCCCOC(C)C)n3n2)CC1,0.0147
13,CC(C)Cn1cc(NC(=O)N2CCC(c3ccccc3)C2)c2ccccc2c1=O (stereo not drawn),-7.93
14,Cc1cc(=O)n2nc(N3CCC(C(=O)NC(C)c4ccccc4)CC3)sc2n1 (stereo not drawn),-3.79
15,N#CCNC(=O)C(CS(=O)(=O)Cc1ccccc1C(F)(F)F)CS(=O)(=O)Cc1ccccc1C(F)(F)F,-6.98
16,COC(=O)c1cc(S(=O)(=O)NCCc2ccc(C)cc2)c[nH]1,-5.93
17,CCOc1cc(-c2cc(-c3ccc(N)cc3)nc(N)c2C#N)ccc1O,3.26
18,CC(C)Cc1nnc(NS(=O)(=O)c2ccc(Cl)cc2)s1,0.561
19,CCOc1ccccc1NC(=O)c1ccccc1N(C)S(=O)(=O)c1ccc(C)cc1,0.316
20,COc1ccc(CN2CCN(c3ccc(C)cc3)CC2)c(C)c1C,1.57
21,CCCc1cc(O)n2nc(C)c(-c3ccc(OC)c(OC)c3)c2n1,-1.11
